Results taken from PubChem BioAssay AID686979 (National Center for Advancing Translational Sciences (NCATS), 2013).
Hit rate of the full screen: of about 420,000 compounds, about 50,000 (12%) were called active. Inconclusive results, whose numbers are uncertain, are shown with a selection of clear calls. Calls come from the whole dose curve; as a rule, active = well fitted inhibition curve with a large enough effect; inconclusive = small, poorly fitted or top-dose-only effect; inactive = flat fitted curve, though single readings scatter. Potencies of inconclusive entries are left out as doubtful fits.

experiment: qHTS for Inhibitors of human tyrosyl-DNA phosphodiesterase 1 (TDP1): qHTS in cells in presence of CPT; conditions: chicken DT40 Tdp1-/-;hTDP1 cells + 20 nM CPT, ATP luminescence, 48 h; activity change, negative = growth inhibition: at 46.2 µM (top of the series) unless noted; note: nearly all actives have a fitted effect of over 55% in size
Method in brief: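 Chicken DT40 Tdp1-/- cells complemented with human TDP1, 400 cells/well, exposed to compounds plus 20 nM camptothecin for at least 48 h at 37 C; viability read as ATP content by CellTiter-Glo luminescence.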
% is set by controls: 0 for no effect and ±100 for the full control effect; potency is the fitted concentration of half-maximal effect; tags give direction and shape of the fitted curve.

Compound | Potency | activity change, negative = growth inhibition
COc1ccc(C(=O)NC(=S)N2CCC(C)CC2)cc1Br | inconclusive [inhibitor, partial curve, poor fit] | –
O=C(CCS(=O)(=O)c1ccc(Br)cc1)NCc1ccco1 | inactive | –
Oc1ccc(/C=N/n2c3ccccc3c3ccccc32)cc1 | inconclusive [inhibitor, partial curve, poor fit] | –
CNC(=O)NC(=O)C(C)OC(=O)c1oc2ccccc2c1CSc1ccc(Cl)cc1 (centres undefined) | inconclusive [inhibitor, single point] | –
COc1ccc2c(=O)c(Oc3ccc(C(=O)O)cc3)c(C(F)(F)F)oc2c1 | inconclusive [inhibitor, single point] | –
Cc1noc(C)c1-c1nc(CS(=O)(=O)c2ccccc2)no1 | inactive | –
CCCCCCNC(=O)c1c(O)c2cccc3c2n(c1=O)CCC3 | inconclusive [inhibitor, single point] | –
O=C(O)c1sccc1Oc1ccc(NS(=O)(=O)c2ccc(Cl)cc2)cc1 | inactive | –
COc1ccc(Br)cc1C(=O)Nc1cccc(NC(=O)c2ccco2)c1 | inconclusive [inhibitor, single point] | –
CCOc1ccc(C(=O)Cn2cnc3ccccc3c2=O)cc1 | – | inconclusive: -30.7% [inhibitor]
Cc1nc2c(cc1NC(=O)c1ccccc1)nc(C)n2Cc1ccccc1 | inconclusive [inhibitor, partial curve] | –
CN1C(=O)/C(=C2\SC(=S)N(NC(=O)c3cccnc3)C2=O)c2ccccc21 | inactive | –
C[C@@H](C(=O)Nc1ccc2ccccc2c1)[C@H]1C[C@]1(C)[C@H](NS(=O)(=O)c1ccc(-c2ccccc2)cc1)c1ccccc1 | inconclusive [inhibitor, partial curve] | –
COc1ccc2ncccc2c1Cc1c(OC)ccc2ncccc12 | active: 14.6 µM | –
CCCCNC(=O)c1nc(-c2cc3ccccc3[nH]2)oc1-c1cccc(C(F)(F)F)c1 | active: 14.6 µM | –
O=C(C=Cc1cccc(Cl)c1)c1ccccc1 | active: 14.6 µM | –
COc1ccc(S(=O)(=O)NCCS(=O)(=O)N2CCN(c3ccccc3)CC2)cc1OC | inconclusive [inhibitor, single point] | –
Cc1cc2c3c(c1)C(C)CC(C)(C)N3C(=O)C2=C(C#N)C#N (centres undefined) | inconclusive [inhibitor, single point] | –
COc1ccc(CCN(Cc2ccc(C(C)C)cc2)S(=O)(=O)c2ccc(S(=O)(=O)N(C)C)cc2)cc1OC | inconclusive [inhibitor, partial curve] | –
COc1ccc2c(c1)c(CC(=O)Nc1ccc(C(C)=O)cc1)c(C)n2C(=O)c1ccc(Cl)cc1 | active: 20.6 µM | –
OC(c1ccccc1)c1nc2ccccc2s1 (centres undefined) | active: 23.1 µM | –
O=C(Cn1ncc2c1-c1ccccc1OC2)N1CCN(Cc2ccc3c(c2)OCO3)CC1 | inactive | –
COc1ccc(-n2nc(C(=O)NCC(=O)N3CCN(c4ccccc4OC)CC3)c3ccccc3c2=O)c(OC)c1 | inconclusive [inhibitor, single point] | –

Compound | Potency | activity change, negative = growth inhibition
Cc1ccc(NC(=O)COc2coc(CN3CCc4ccccc43)cc2=O)cc1Cl | active: 23.1 µM | –
COc1ccc(NC(=O)c2oc3ccccc3c2NC(=O)C23CC4CC(CC(C4)C2)C3)c(OC)c1 | inactive | –
O=C(CCNC(=O)N1CC(=O)Nc2ccccc21)Nc1cccc(Cl)c1 | inactive | –
CCOc1ccc(C(=O)CCC(=O)N(CC)CC(=O)Nc2c(F)cccc2F)cc1 | inactive | –
O=c1oc2ccccc2cc1-c1csc(Nc2ccc(O)cc2)n1 | active: 9.2 µM | –
Cc1cc(Cl)ccc1OCCCC(=O)OCC(=O)c1c(N)n(C)c(=O)n(C)c1=O | inactive | –
CCOC(=O)c1cnn(-c2ccc(Cl)cc2)c1C1CCN(C(=O)OC(C)(C)C)CC1 | inconclusive [inhibitor, single point] | –
CO[C@H]1[C@H](NC(=O)C(C)C)c2ccccc2C12CCN(Cc1c(C)nn(C)c1Cl)CC2 | inactive | –
CCc1cccc(CC)c1NC(=O)C(Cc1ccccc1)NS(=O)(=O)c1cccc2nsnc12 (centres undefined) | inconclusive [inhibitor, single point] | –
CCn1c(O)c(C=Nc2ccccc2)sc1=O | inactive | –
CCCc1cc(=O)[nH]c(SC(C)C(=O)Nc2ccc3c(c2)OCCO3)n1 (centres undefined) | inconclusive [inhibitor, single point] | –
CCc1ccc(NC(=O)CSc2nc3c(oc4ccccc43)c(=O)n2-c2cccc(C)c2)cc1 | inconclusive [inhibitor, partial curve] | –
CC(=O)c1cccc(N2C(=O)C3C4CCC(C4=C(C)C)C3C2=O)c1 (centres undefined) | inactive | –
CCN(CC)CCn1c2ccc(Cl)cc2c2nc(C)sc21 | inconclusive [inhibitor, single point] | –
CCCCN(C(=O)c1cc2c(s1)CCC2)c1c(N)n(CC(C)C)c(=O)[nH]c1=O | inactive | –
CCCCOCCCNC(=O)C[C@@H]1C[C@@]2(C(=O)OC)CC(C)(C)CC=C2N(Cc2ccc3c(c2)OCO3)C1=O | inconclusive [inhibitor, single point] | –
Clc1ccccc1NN(Cc1ccncc1)c1ccccc1Cl | inconclusive [inhibitor, single point] | –
Cc1ccc(CNc2nc3c([nH]2)c(=O)n(C)c(=O)n3C)cc1 | inconclusive [inhibitor, single point] | –
CCOC(=O)C1(C)CCCN1C(=O)c1ccc(Cl)nc1 (centres undefined) | inactive | –
CCOC(=O)Cn1nc(-c2ccc(Cl)cc2)ccc1=O | inconclusive [inhibitor, partial curve, poor fit] | –
CCn1c(=S)sc2c(=O)n(CC(=O)Nc3cccc(Br)c3)c(C)nc21 | inconclusive [inhibitor, single point] | –
CCCn1c(N)c(C(=O)CSc2nc(C)cs2)c(=O)n(C)c1=O | inconclusive [inhibitor, single point] | –
COc1cc(OC)c(NS(=O)(=O)c2cc(Br)cnc2N)cc1Cl | inactive | –

Compound | Potency | activity change, negative = growth inhibition
CCOc1ccc(CN(C)CC(=O)Nc2ccccc2C(=O)NC2CC2)cc1 | inconclusive [inhibitor, single point] | –
CC(=O)Nc1ccc(/C=N/NC(=S)NC(C)C)cc1 | inconclusive [inhibitor, single point] | –
CCCCNC(=O)CCn1c(=O)c2ccccc2n(Cc2ccc(Cl)cc2)c1=O | inconclusive [inhibitor, partial curve] | –
CC(C)(C)OC(=O)C[C@@H]1C/C=C\C[C@@H](CC(=O)NCCO)C(=O)NC[C@H](c2ccccc2)OC1=O | inconclusive [inhibitor, single point] | –
CN(C)c1ccccc1C(=O)N1CCCC(Nc2ccc(F)cc2)C1 (centres undefined) | inactive | –
CCN1C(C(=O)c2ccccc2)=C(OC(=O)COc2ccc(OC)cc2)c2ccccc2S1(=O)=O | active: 5.17 µM | –
CCOc1cc(CNc2ccccc2)cc(Br)c1OCc1ccc(F)cc1 | inconclusive [inhibitor, single point] | –
CN1CCc2c(sc(NC(=O)CSc3ccc(F)cc3)c2-c2nc3ccccc3s2)C1 | inconclusive [inhibitor, single point] | –
S=C(NCC1CCCO1)N1CCN(c2nc(-c3ccc(Cl)cc3)cs2)CC1 (centres undefined) | active: 16.4 µM | –
Cc1ccc(C)c(NC(=O)CN(C)C(=O)CC2OC(=O)c3ccccc32)c1 (centres undefined) | inconclusive [inhibitor, single point] | –
Cc1ccc(N(C(=O)CNC(=O)c2cccs2)C(C(=O)NC2CCCC2)c2ccncc2)cc1 (centres undefined) | inactive | –
CN1CCN(c2nc(-c3cccc([N+](=O)[O-])c3)nc3ccccc23)CC1 | inconclusive [inhibitor, single point] | –
Cc1ccc(Nc2sc(C(=O)c3ccccc3)c(N)c2C(=O)Nc2ccc(Cl)cc2)cc1 | inconclusive [inhibitor, single point] | –
CCCCSc1nnc(CCCCCNC(=O)OC(C)(C)C)o1 | inconclusive [inhibitor, single point] | –
COc1ccc(NC(=O)COc2ccc(C(=O)c3ccc(F)cc3)cc2)cc1S(N)(=O)=O | inconclusive [inhibitor, partial curve] | –
O=C(CCc1ccc(S(=O)(=O)N2CCOCC2)cc1)NCCCN1CCCC1=O | inactive | –
CN1CCC(N2CCN(C3CN(Cc4cn(Cc5ccc(C(F)(F)F)cc5)nn4)S(=O)(=O)C3)CC2)CC1 (centres undefined) | inconclusive [inhibitor, single point] | –
Cc1cccc(N2CCN(C(=O)c3ccc(CS(=O)(=O)c4ccccc4C)o3)CC2C)c1 (centres undefined) | inconclusive [inhibitor, single point] | –
COc1cc2c(cc1OC)n(CC(=O)c1cccc(Cl)c1)c(=O)n1nc(CCn3nc(C)cc3C)nc21 | inconclusive [inhibitor, single point] | –
O=C(c1cc(COc2cccc3cnccc23)on1)N1CCCC(CCCO)C1 (centres undefined) | active: 1.16 µM | –
COc1ccc(Cc2nnc(NC(=O)Nc3ccccc3F)s2)cc1OC | inconclusive [inhibitor, single point] | –
O=C1S/C(=C/c2ccccc2F)C(=O)N1CCN=C1NS(=O)(=O)c2ccccc21 | active: 16.4 µM | –
CCOC(=O)C(=O)Nc1nc(-c2ccc3c(c2)CCN3C(=O)C2CC2)c(C)s1 | inactive | –
